# Laboratory results as given in article PMC10904736, “A c-di-GMP signaling module controls responses to iron in Pseudomonas aeruginosa” (Nature Communications, 2024).
# No constants are given. Whether binding was seen depends on the method and setting. Some binding calls cover weakened binding; strength is not graded here.
# Key:
# [1] = molecular target: CHASE4 domain of IsmP (CHASE4^IsmP) (Pseudomonas aeruginosa PAO1) (UniProt Q9I243); assay: SEC + native gel or EMSA; CHASE4 domain expressed in Fe^3+-containing M9 medium; both purified
# [2] = molecular target: CHASE4 domain of IsmP (CHASE4^IsmP) (Pseudomonas aeruginosa PAO1) (UniProt Q9I243); assay: crystal structure; CHASE4^IsmP, sitting-drop vapor diffusion at 289.15 K; 1.9 Å, P22_(1)2_(1); both purified
substance,measurement,setting,value
CHASE4 domain of IsmP (CHASE4^IsmP) (from UniProt Q9I243 40-255) (domain or fragment),binding,[1],binds
same,binding,[2],binds
